# From the supplement of paper PMC8728848
# The list shows a part of the results.
# Legend:
# Test in all cases: glycan array binding signal (z-score within array); higher = stronger binding
# Settings in all cases: glycan notation: IUPAC condensed, linker removed
# [1] = target: Gal(b1-3)GlcNAc6S
# Summary of the method: (§1)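 Glycan array data came from 3228 arrays in the Consortium for Functional Glycomics database, and only arrays with an available protein sequence were kept. Glycan names were put into IUPAC-condensed notation, and columns mapping to the same glycan were averaged. The binding signal is a within-array Z-score, averaged across arrays of one protein sequence run at different concentrations or buffers and across linkers. A negative Z-score can be read as non-binding.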
# [2] = target: Gal(b1-3)[Fuc(a1-4)]GlcNAc
# Summary of the method: as §1
# [3] = target: Gal(b1-3)[Fuc(a1-4)]GlcNAc(b1-2)Man
# Summary of the method: as §1
# [4] = target: Gal(b1-3)[Fuc(a1-4)]GlcNAc(b1-2)Man(a1-3)[Gal(b1-3)[Fuc(a1-4)]GlcNAc(b1-2)Man(a1-6)]Man(b1-4)GlcNAc(b1-4)[Fuc(a1-6)]GlcNAc
# Summary of the method: as §1
# [5] = target: Gal(b1-3)[Fuc(a1-4)]GlcNAc(b1-3)Gal(b1-3)[Fuc(a1-4)]GlcNAc
# Summary of the method: as §1
# [6] = target: Gal(b1-3)[Fuc(a1-4)]GlcNAc(b1-3)Gal(b1-4)[Fuc(a1-3)]GlcNAc
# Summary of the method: as §1
# [7] = target: Gal(b1-3)[Fuc(a1-4)]GlcNAc(b1-6)GalNAc
# Summary of the method: as §1
# [8] = target: Gal(b1-3)[GlcNAc(b1-6)]GalNAc
# Summary of the method: as §1
# [9] = target: Gal(b1-3)[Neu5Ac(a2-6)]GalNAc
# Summary of the method: as §1
# [10] = target: Gal(b1-3)[Neu5Ac(a2-6)]GlcNAc(b1-4)Gal(b1-4)Glc
# Summary of the method: as §1
# [11] = target: Gal(b1-3)[Neu5Ac(b2-6)]GalNAc
# Summary of the method: as §1
# [12] = target: Gal(b1-4)Gal
# Summary of the method: as §1
# [13] = target: Gal(b1-4)GalNAc(a1-3)[Fuc(a1-2)]Gal(b1-4)GlcNAc
# Summary of the method: as §1
# [14] = target: Gal(b1-4)GalNAc(b1-3)[Fuc(a1-2)]Gal(b1-4)GlcNAc
# Summary of the method: as §1
# [15] = target: Gal(b1-4)Glc
# Summary of the method: as §1
# [16] = target: Gal(b1-4)Glc6S
# Summary of the method: as §1
# [17] = target: Gal(b1-4)GlcNAc
# Summary of the method: as §1
# [18] = target: Gal(b1-4)GlcNAc(a1-6)Gal(b1-4)GlcNAc
# Summary of the method: as §1
# [19] = target: Gal(b1-4)GlcNAc(b1-2)Man
# Summary of the method: as §1
# [20] = target: Gal(b1-4)GlcNAc(b1-2)Man(a1-3)Man(b1-4)GlcNAc(b1-4)GlcNAc
# Summary of the method: as §1
# [21] = target: Gal(b1-4)GlcNAc(b1-2)Man(a1-3)[Gal(b1-4)GlcNAc(b1-2)Man(a1-6)]Man(b1-4)GlcNAc(b1-4)GlcNAc
# Summary of the method: as §1
# [22] = target: Gal(b1-4)GlcNAc(b1-2)Man(a1-3)[Gal(b1-4)GlcNAc(b1-2)Man(a1-6)]Man(b1-4)GlcNAc(b1-4)[Fuc(a1-6)]GlcNAc
# Summary of the method: as §1
# [23] = target: Gal(b1-4)GlcNAc(b1-2)Man(a1-3)[Gal(b1-4)GlcNAc(b1-2)Man(a1-6)][Gal(b1-4)GlcNAc(b1-4)]Man(b1-4)GlcNAc(b1-4)[Fuc(a1-6)]GlcNAc
# Summary of the method: as §1
# [24] = target: Gal(b1-4)GlcNAc(b1-2)Man(a1-3)[Gal(b1-4)GlcNAc(b1-2)Man(a1-6)][GlcNAc(b1-4)]Man(b1-4)GlcNAc(b1-4)[Fuc(a1-6)]GlcNAc
# Summary of the method: as §1
# [25] = target: Gal(b1-4)GlcNAc(b1-2)Man(a1-3)[GlcNAc(b1-2)Man(a1-6)]Man(b1-4)GlcNAc(b1-4)GlcNAc
# Summary of the method: as §1
# [26] = target: Gal(b1-4)GlcNAc(b1-2)Man(a1-3)[GlcNAc(b1-4)][Gal(b1-4)GlcNAc(b1-2)Man(a1-6)]Man(b1-4)GlcNAc(b1-4)GlcNAc
# Summary of the method: as §1
# [27] = target: Gal(b1-4)GlcNAc(b1-2)Man(a1-3)[Man(a1-6)]Man(b1-4)GlcNAc(b1-4)GlcNAc
# Summary of the method: as §1
# [28] = target: Gal(b1-4)GlcNAc(b1-2)Man(a1-6)Man(b1-4)GlcNAc(b1-4)GlcNAc
# Summary of the method: as §1
# [29] = target: Gal(b1-4)GlcNAc(b1-2)Man(a1-6)[GlcNAc(b1-2)Man(a1-3)]Man(b1-4)GlcNAc(b1-4)GlcNAc
# Summary of the method: as §1
# [30] = target: Gal(b1-4)GlcNAc(b1-2)Man(a1-6)[Man(a1-3)]Man(b1-4)GlcNAc(b1-4)GlcNAc
# Summary of the method: as §1
# [31] = target: Gal(b1-4)GlcNAc(b1-2)[Gal(b1-4)GlcNAc(b1-4)]Man(a1-3)[Gal(b1-4)GlcNAc(b1-2)Man(a1-6)]Man(b1-4)GlcNAc(b1-4)GlcNAc
# Summary of the method: as §1
# [32] = target: Gal(b1-4)GlcNAc(b1-2)[Gal(b1-4)GlcNAc(b1-4)]Man(a1-3)[Gal(b1-4)GlcNAc(b1-2)[Gal(b1-4)GlcNAc(b1-6)]Man(a1-6)]Man(b1-4)GlcNAc(b1-4)GlcNAc
# Summary of the method: as §1
# [33] = target: Gal(b1-4)GlcNAc(b1-2)[Gal(b1-4)GlcNAc(b1-4)]Man(a1-3)[GlcNAc(b1-4)][Gal(b1-4)GlcNAc(b1-2)Man(a1-6)]Man(b1-4)GlcNAc(b1-4)GlcNAc
# Summary of the method: as §1
# [34] = target: Gal(b1-4)GlcNAc(b1-2)[Gal(b1-4)GlcNAc(b1-4)]Man(a1-3)[GlcNAc(b1-4)][Gal(b1-4)GlcNAc(b1-2)[Gal(b1-4)GlcNAc(b1-6)]Man(a1-6)]Man(b1-4)GlcNAc(b1-4)GlcNAc
# Summary of the method: as §1
# [35] = target: Gal(b1-4)GlcNAc(b1-2)[Gal(b1-4)GlcNAc(b1-6)]Man(a1-6)[Gal(b1-4)GlcNAc(b1-2)Man(a1-3)]Man(b1-4)GlcNAc(b1-4)GlcNAc
# Summary of the method: as §1
# [36] = target: Gal(b1-4)GlcNAc(b1-2)[Gal(b1-4)GlcNAc(b1-6)]Man(a1-6)[Gal(b1-4)GlcNAc(b1-2)Man(a1-3)]Man(b1-4)GlcNAc(b1-4)[Fuc(a1-6)]GlcNAc
# Summary of the method: as §1
# [37] = target: Gal(b1-4)GlcNAc(b1-2)[Gal(b1-4)GlcNAc(b1-6)]Man(a1-6)[GlcNAc(b1-4)][Gal(b1-4)GlcNAc(b1-2)Man(a1-3)]Man(b1-4)GlcNAc(b1-4)GlcNAc
# Summary of the method: as §1
# [38] = target: Gal(b1-4)GlcNAc(b1-2)[Gal(b1-4)GlcNAc(b1-6)]Man(a1-6)[GlcNAc(b1-4)][Gal(b1-4)GlcNAc(b1-2)[Gal(b1-4)GlcNAc(b1-4)]Man(a1-3)]Man(b1-4)GlcNAc(b1-4)[Fuc(a1-6)]GlcNAc
# Summary of the method: as §1
# [39] = target: Gal(b1-4)GlcNAc(b1-3)Gal(b1-3)GalNAc
# Summary of the method: as §1
# [40] = target: Gal(b1-4)GlcNAc(b1-3)Gal(b1-3)GlcNAc
# Summary of the method: as §1
# [41] = target: Gal(b1-4)GlcNAc(b1-3)Gal(b1-4)Glc
# Summary of the method: as §1
# [42] = target: Gal(b1-4)GlcNAc(b1-3)Gal(b1-4)GlcNAc
# Summary of the method: as §1
# [43] = target: Gal(b1-4)GlcNAc(b1-3)Gal(b1-4)GlcNAc(b1-2)Man(a1-3)[Gal(b1-4)GlcNAc(b1-3)Gal(b1-4)GlcNAc(b1-2)Man(a1-6)]Man(b1-4)GlcNAc(b1-4)GlcNAc
# Summary of the method: as §1
# [44] = target: Gal(b1-4)GlcNAc(b1-3)Gal(b1-4)GlcNAc(b1-2)Man(a1-3)[Gal(b1-4)GlcNAc(b1-3)Gal(b1-4)GlcNAc(b1-2)Man(a1-6)]Man(b1-4)GlcNAc(b1-4)[Fuc(a1-6)]GlcNAc
# Summary of the method: as §1
# [45] = target: Gal(b1-4)GlcNAc(b1-3)Gal(b1-4)GlcNAc(b1-2)[Gal(b1-4)GlcNAc(b1-3)Gal(b1-4)GlcNAc(b1-6)]Man(a1-6)[Gal(b1-4)GlcNAc(b1-3)Gal(b1-4)GlcNAc(b1-2)Man(a1-3)]Man(b1-4)GlcNAc(b1-4)GlcNAc
# Summary of the method: as §1
binder,measurement,setting,value
Fm1D (Escherichia coli) (protein) FSCNVDGGSSIGAGTTSVYVNLDPVIQPGQNLVVDLSQHISCWNDYGGWYDTDHINLVQGSAFAGSLQSYKGSLYWNNVTYPFPLTTNTNVLDIGDKTPMPLPLKLYITPVGAAGGVVIKAGEVIARIHMYKIATLGSGNPRNFTWNIISNNSVVMPTHHHHHH,glycan array binding signal (z-score),[1],-0.146
same,glycan array binding signal (z-score),[2],-0.146
same,glycan array binding signal (z-score),[3],-0.142
same,glycan array binding signal (z-score),[4],-0.125
same,glycan array binding signal (z-score),[5],-0.146
same,glycan array binding signal (z-score),[6],-0.145
same,glycan array binding signal (z-score),[7],-0.135
same,glycan array binding signal (z-score),[8],4.94
same,glycan array binding signal (z-score),[9],3.04
same,glycan array binding signal (z-score),[10],-0.148
same,glycan array binding signal (z-score),[11],0.355
same,glycan array binding signal (z-score),[12],-0.144
same,glycan array binding signal (z-score),[13],-0.144
same,glycan array binding signal (z-score),[14],-0.149
same,glycan array binding signal (z-score),[15],-0.145
same,glycan array binding signal (z-score),[16],-0.142
same,glycan array binding signal (z-score),[17],-0.147
same,glycan array binding signal (z-score),[18],-0.143
same,glycan array binding signal (z-score),[19],-0.139
same,glycan array binding signal (z-score),[20],-0.148
same,glycan array binding signal (z-score),[21],-0.145
same,glycan array binding signal (z-score),[22],-0.125
same,glycan array binding signal (z-score),[23],-0.143
same,glycan array binding signal (z-score),[24],-0.143
same,glycan array binding signal (z-score),[25],-0.146
same,glycan array binding signal (z-score),[26],-0.146
same,glycan array binding signal (z-score),[27],-0.146
same,glycan array binding signal (z-score),[28],-0.147
same,glycan array binding signal (z-score),[29],-0.145
same,glycan array binding signal (z-score),[30],-0.144
same,glycan array binding signal (z-score),[31],-0.142
same,glycan array binding signal (z-score),[32],-0.139
same,glycan array binding signal (z-score),[33],-0.147
same,glycan array binding signal (z-score),[34],-0.146
same,glycan array binding signal (z-score),[35],-0.146
same,glycan array binding signal (z-score),[36],-0.14
same,glycan array binding signal (z-score),[37],-0.151
same,glycan array binding signal (z-score),[38],-0.144
same,glycan array binding signal (z-score),[39],-0.145
same,glycan array binding signal (z-score),[40],-0.144
same,glycan array binding signal (z-score),[41],-0.147
same,glycan array binding signal (z-score),[42],-0.146
same,glycan array binding signal (z-score),[43],-0.138
same,glycan array binding signal (z-score),[44],-0.138
same,glycan array binding signal (z-score),[45],-0.128
